{
  "source": "PubChem BioAssay AID2060350",
  "about": "(Molecular Pharmacology Branch, DTP, NCI, 2025)",
  "system": "PDC 521955-158-R6-J3 spheroids, viability",
  "experiment": "Anticancer human tumor 521955-158-R6-J3-PDC patient-derived pancreatic carcinoma cell line growth inhibition [TAK]",
  "details": "stronger effect = lower value, spheroids with HUVEC and MSC",
  "excerpt": "Combinatorial screen of targeted agents with TAK-243 and ipatasertib in multi-cell type tumor spheroids\nA high-throughput screen of multi-cell type tumor spheroids was designed to identify active combinations of targeted small molecules and TAK-243 or ipatasertib. Complex spheroids include a stromal component modeled by human endothelial cells (HUVEC) and fibroblasts modeled by human mesenchymal stem cells (MSCs). The concentration ranges selected for each drug and investigational agent were based upon clinically achievable concentrations if the clinical Cmax of the agent was known.\nCompounds. The drugs and investigational agents: TAK-243 (785004), ipatasertib (767898), everolimus (733504), selumetinib (741078), bortezomib (756655), trametinib (758246), ixazomib (758254), vemurafenib (761431), dabrafenib (764134), sapanisertib (764658), alpelisib (765974), and copanlisib (816437), were obtained from the National Cancer Institute (NCI) Developmental Therapeutics Program Chemical Repository. The FDA-approved anticancer drug set is available from the NCI Developmental Therapeutics Program. […] The stock solutions were prepared in dimethyl sulfoxide (DMSO, Sigma-Aldrich, St. Louis, MO, cat. D2650) at 800-fold the tested concentration and stored at -70 degrees C prior to their use. All drugs and investigational agents were tested over a range starting from a high concentration at or near the clinical Cmax and decreasing in half-log increments. If the clinical Cmax for an agent had not been determined, the highest concentration tested was 10 microM.\nNCI60 Cell Culture. NCI60 cell lines were obtained from the NCI Developmental Therapeutics Program Tumor Repository. For each lot of cells, the Repository performed Applied Biosystems AmpFLSTR Identifiler testing with PCR amplification to confirm consistency with the published Identifier STR profile for each cell line. Cells were kept in continuous culture for no more than 20 passages. The optimal seeding densities for each of the cell lines at each time point assessed were determined prior to performing the concentration response studies. Briefly, the NCI60 human tumor lines were grown as monolayers in RPMI 1640 medium supplemented with 10% FBS and 2 mmol/L L-glutamine.\nAn additional 2 lines were from the NCI60 cell line panel including melanomas, MALME-3M and SK-MEL-2. Pooled donor human umbilical vein endothelial cells (HUVEC, Lonza, cat. CC-2519) and human mesenchymal stem cells (hMSC, Lonza, cat. PT-2501) were purchased from Lonza (Walkersville, MD). […]\nFor the pre-screen, cell seeding densities were determined from a titration spanning the range from 5,000 to 313 cells per well. […]",
  "note": "Certain results were filed several times, with different values. The other results are left out here. An entry can have further records. Results that share an entry are repeated measurements in other runs, samples, wells, individuals or studies. Marks such as [2022-09] give the month of the run.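 Note: spheroids exposed to drugs for 7 days before readout; 100% = DMSO vehicle control viability.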",
  "data": [
    {"smiles": "CC(C)NCC(C(=O)N1CCN(c2ncnc3c2C(C)CC3O)CC1)c1ccc(Cl)cc1", "note": "(centres undefined)", "values": [
      {"measurement": "viability, T/C", "setting": "compound alone 0.949 µM", "value": "87.7% [2020-02] and 104, 105, 99.2, 91, 98.1, 76.3, 74.8, 72.9, 73.1% [2020-03]"},
      {"measurement": "viability, T/C", "setting": "compound alone 3 µM", "value": "89.5% [2020-02] and 102, 98.5, 92.6, 87, 89.4, 79, 76.4, 67.3, 67.4% [2020-03]"},
      {"measurement": "viability, T/C", "setting": "compound alone 9.49 µM", "value": "88.9% [2020-02] and 102, 101, 96.1, 98.2, 96.5, 82.2, 72.6, 73.2, 72.7% [2020-03]"},
      {"measurement": "viability, T/C", "setting": "compound alone 30 µM", "value": "100% [2020-02] and 107, 93.5, 98.8, 87, 91.7, 78.6, 70.5, 67.1, 68.4% [2020-03]"}
    ]}
  ]
}
